{"source": "paper doi:10.1101/2022.09.29.510028", "about": "(bioRxiv, 2022)", "target": "the molecule itself", "test": "native MS", "note": "Several values for one entry are separate records, joined by “and”; a condition that tells them apart may be missing. Identical values can stand only once.", "data": [{"protein": "NPM1_(240) (NTD and the entire IDR, […]) (domain or fragment) not shown", "values": [{"measurement": "stoichiometry N", "result": "5 and 10"}]}]}
